Measured values published in the RNAGym collection of RNA variant scans (doi:10.1093/nar/gkz1192).
The source gives no read counts; variants with many changes may rest on few reads.

B1: CPEB3 Ribozyme (parent)
chain: UAACAGGGGGCCACAGCAGAAGCGUUCACGUCGCAGCCCCUGUCAGAUUCUGGUGAAUCUGCGAAUUCUGCUGUAUAUCUC

Variants of: B1
Test: self-cleavage, relative activity (ratio to wild type); higher = more cleavage; in vitro, sequencing
Outline: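 CPEB3 self-cleaving ribozyme mutant libraries were made by rounds of error-prone PCR, barcoded, and transcribed in vitro with T7 RNA polymerase for 5 hours at 37°C. Cleavage occurred during transcription and a 15 min DNase I step before EDTA stop. RNAs were reverse transcribed with template switching and Illumina-sequenced, with DNA sequencing mapping barcodes to variants. Relative activity is the variant's cleaved/total read fraction divided by wild type's (minimum 5 reads), averaged across three batches.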

| Variant | self-cleavage |
| --- | --- |
| UAACAGGGGGCAACAGCAGAAGCGUUCACGUCGCAGCCCCUGUCAGAUUCUGGUGGACCUGCGAAUUCUGCUGUACACCUC [C12A A56G U58C U76C U78C] | 0.2 |
| UAACAGGGGGCAACAGCAGAAGCGCUCACGUCGCAGCCCCUGUCAGAUUCUGGUGAUUCUGUGAAUUCUGCUGUAUAUCUA [C12A U25C A57U C62U C81A] | 0.09 |
| UAACAGGGGGCUACAGCGGAGGCGUCCACAUCGCAGCCCCUGUCAGAUUCUGGUGAAUCUGCGAAUUCUGCUGUAUAUCUC [C12U A18G A21G U26C G30A] | 0.43 |
| UAACAGGGGGCGACAGCAGAAGCGUUCACGUCGCAGCCCCUAUCAGAUUCUGGUGAGACUGCGAAUUCUGCGCUAUAUCUC [C12G G42A A57G U58A U72G G73C] | 0.03 |
| UAACAGGGGGCUACAGCGGAAGCGUUCACGUCGCAGCCCCGGUCAUAUUCUGGUGAAUCUGCGAAUUCUGCUGUAUAUCUC [C12U A18G U41G G46U] | 0.09 |
| UAACAGGGGGCAACAGCAGAAGCGUUCACGUCGCAGCCCUUGUCAGACUCUGGUGAAUCUGCGAAUUCUGCUGUAUACCUC [C12A C40U U48C U78C] | 0.11 |
| UAACAGGGGGCAACAGCAGAAGCGUUCACGCCGCAGCCCCUGUCAGAUUCUGGCGAAUCUGCGAAUUCUGCUGUAUAUCUC [C12A U31C U54C] | 0.9 |
| UAACAGGGGGCUACGGCAGAAGCGUCCACGUCGCAGCCCCUGUCAGGUUCUGGUGAAUCUGCGAAUUUUGCUGCAUAUCUC [C12U A15G U26C A47G C68U U74C] | 0.32 |
| UAACAGGGGGCGACGGCAGAAGCAUUCACGUCGCAGCUCCCGUCAGAUUCUGGUGAAUCUGCGAAUUCUGCUGUAUAUCUC [C12G A15G G24A C38U U41C] | 0.09 |
| UAACAGGGGGCGGCAGCAGAAGCGUUCACGUCGCAGCCCCUGUCAGAUUCUGGUGAAUCUGCGAAUUCUGCCGUAUAUCUC [C12G A13G U72C] | 0.62 |
| UAACAGGGGGCGACAGCAGAAGCGUUCACGUCGCAGCCCCUGUCAGAUUCUGGUGGAUCUGCGAAUUCUGCUGUGUAUAUC [C12G A56G A75G C79A] | 0.44 |
| UAACAGGGGGCAACAGCAGAAGCGUUCACGUCGCAGCCCCUGUCAGAUUCAGGUGAAUCUGCGAACUCUGCUGUAUAUCUC [C12A U51A U66C] | 0.4 |
| UAACAGGGGGCGACAGCAGAAGCGUUCACGUAGCAGCCCCAGUCAGAUUCUGGUGAAUCCGCGAAUUCUGCUGUAUAUCUC [C12G C32A U41A U60C] | 0.07 |
| UAACAGGGGGCGACAGCAGUAGCGUUCACGUCGCAGCCCCUGCCAGAUUCUGGUGAAUCUGCGAAUUCUGCUGCAUAUCUC [C12G A20U U43C U74C] | 0.05 |
| UAACAGGGGGCUACGGCAGGAGCGUUCACGCCGCAGCCCCUGUCAGAUCCUGGUGAAUCUGCGAAUUCUGCUGUAUAUCUC [C12U A15G A20G U31C U49C] | 0.02 |
| UAACAGGGGGCAACAGCAGAAGCGUUGACGUCGCAGCCCCUGUCAGCUUCCGGUGAAUCUGCGAAUUCUGCUGUAUAUCCC [C12A C27G A47C U51C U80C] | 0.17 |
| UAACAGGGGGCAACAGCAGAAGAGUUGACGUCGCAGCCCCUGUCAGAUUCUGGUGUUUCUACGUAUUCUGCUGUAUAUCUC [C12A C23A C27G A56U A57U G61A A64U] | 0.06 |

| Variant | self-cleavage |
| --- | --- |
| UAACAGGGGGCAACAGCAGAAGCGUUCACGUCGCAGCCCCUGUCAGACUCUGGUGAAUCUGCGAAUUCUGCUGCAUACCUC [C12A U48C U74C U78C] | 0.75 |
| UAACAGGGGGCGACAGCAGAAGCGUUCACGUCGCAGCCCCAGUCGGAUUCUGGUGAAUCUGCGAAUACUGCUGUAUACCCC [C12G U41A A45G U67A U78C U80C] | 0.04 |
| UAACAGGGGGCAACAGCAGAAGCGCUCACGUCGCAGCCCCUGUCAGAUACUGGUGAAUCUGCGAAUUCUGCUGUAUAUCUC [C12A U25C U49A] | 0.34 |
| UAACAGGGGGCUACAGCUGAAGCGUUCACGUCGCAGCCCCUGUCGGAUCCUGGUGAAUCUGCGAAUACUGCAGUAUAUCUC [C12U A18U A45G U49C U67A U72A] | 0.08 |
| UAACAGGGGGCGACUGCUGAAGCGAUCACGUCGCAGCCCCUGACAGAUUCUGGUUAAUCUGCGAAUUCUGCUGUAUAUCCC [C12G A15U A18U U25A U43A G55U U80C] | 0.03 |
| UAACAGGGGGCUUCAGCAGAGGCGUUCACGUCGCAGCCCCUGUCAGAUUCUGGUGUGUCUGCGAAUCCUGCAGUAUAUCUC [C12U A13U A21G A56U A57G U67C U72A] | 0.17 |
| UAACAGGGGGCGACUGCAGAAGCGUUCACAUCGCAGCCCCUGUCAGAUUCUGGUGAAUCUGCGAAUUCUGCUGUAUAUCUC [C12G A15U G30A] | 0.09 |
| UAACAGGGGGCUACAGCGGAAGCGUUCACGCCGCAGCCCCUGUCAGAUUCUGGUGAAUCUGCGAAUUCUGCUGUAUAUCUC [C12U A18G U31C] | 0.34 |
| UAACAGGGGGCAACAGCAGAAGCGUUCACAUCGCAGCUCAUGUCAGAUUCUGGUGACUCUGCGAAUCCUGCUGUAUAUCUC [C12A G30A C38U C40A A57C U67C] | 0.06 |
| UAACAGGGGGCUACAGCGGAAGCGUUCACGUCGCAGCCCCUGUCAGAUUCUGGUGAAUCUGCGAAUUCUGCUCUAUAUCUC [C12U A18G G73C] | 1.24 |
| UAACAGGGGGCGGCAGCGGAAGCGUUCACGUCGCAGCCCCUGUCAGAUUCUGGUGAAUCUGCGAAUUUUGCUGUAUAUCCC [C12G A13G A18G C68U U80C] | 0.39 |
| UAACAGGGGGCAACAGCAGAAGCGUUGACGUCGCAGCCCCUGUCAGAUUCUGGUGGAUCUGCGAAUUCAGCUGUAUAUCUC [C12A C27G A56G U69A] | 0.2 |
| UAACAGGGGGCAACAGCAGAAGCGCUCACGUCGCAGCCCCUGUCAGAUUCUGGUGAAUCUGCGUAUACGGCUGUAUAUCUC [C12A U25C A64U U67A U69G] | 0.15 |
| UAACAGGGGGCGACAGGGGGAGCGCUCACGUCGCAGCCCCUGUCGGAUUCUGGUGAAUCAGCGAAUUCUGCUGUAUAUCUC [C12G C17G A18G A20G U25C A45G U60A] | 0.09 |
| UAACAGGGGGCGACAGCAGAAGCGUUCACGUCGCAGCCCCAGUCUGAUUCCGGCGAAUCUGCGAAUUCUGCUGUAUACCUC [C12G U41A A45U U51C U54C U78C] | 0.1 |
| UAACAGGGGGCAACAGCAGAAGCGCUCACGUCACAGCCCCUGUCGGAUUCUGGUGUAUCUGCGAAUUCUGCUGUAUAUCUC [C12A U25C G33A A45G A56U] | 0.09 |
| UAACAGGGGGCAACAGCAGAAGCGUUCAUGUCGCAGCCCCCGUCAGAUUCCGGUGAAUCUGCGAAUUUUGCUGUAUAUCCC [C12A C29U U41C U51C C68U U80C] | 0.39 |
